Measurements as given in PMC6919601, “Identification of Plasmodium dipeptidyl aminopeptidase allosteric inhibitors by high throughput screening” (PLoS ONE, 2019).
About 230 (0.21%) of roughly 110,000 compounds showed an effect of 50% or more. Some of the results follow.

Target: DPAP1 (Plasmodium falciparum, UniProt Q8IIJ9)
Assay: primary screen, percent inhibition; read by cleavage of a fluorogenic dipeptide substrate; higher = more effect of the substance
Design: species or system P. falciparum D10 trophozoite lysates; single well
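Note: 30 min substrate incubation versus DMSO and 10 µM JCP410 controls.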

DPAP1, sequence (Q8IIJ9 whole entry, looked up): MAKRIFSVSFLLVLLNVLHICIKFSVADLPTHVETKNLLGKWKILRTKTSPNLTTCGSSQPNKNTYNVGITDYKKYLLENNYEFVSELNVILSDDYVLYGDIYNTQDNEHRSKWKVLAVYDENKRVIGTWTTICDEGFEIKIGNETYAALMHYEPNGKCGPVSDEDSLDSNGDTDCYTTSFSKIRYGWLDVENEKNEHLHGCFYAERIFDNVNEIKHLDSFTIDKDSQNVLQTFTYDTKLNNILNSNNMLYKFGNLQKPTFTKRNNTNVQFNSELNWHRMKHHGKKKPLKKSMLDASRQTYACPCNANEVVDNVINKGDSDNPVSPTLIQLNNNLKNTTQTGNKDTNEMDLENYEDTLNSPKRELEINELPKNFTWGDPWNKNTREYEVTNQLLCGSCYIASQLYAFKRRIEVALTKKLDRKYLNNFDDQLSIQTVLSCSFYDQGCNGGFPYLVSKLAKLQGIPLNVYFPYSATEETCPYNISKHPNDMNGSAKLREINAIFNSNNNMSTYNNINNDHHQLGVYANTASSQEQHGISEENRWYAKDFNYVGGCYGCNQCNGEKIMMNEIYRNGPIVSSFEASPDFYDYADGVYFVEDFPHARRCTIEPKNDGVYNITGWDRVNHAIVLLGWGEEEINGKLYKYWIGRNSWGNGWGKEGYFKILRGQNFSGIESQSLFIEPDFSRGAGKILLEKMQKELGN

Row | Compound | % Inhibition @ 10 uM [%]
1 | Oc1nc2ccccc2c(O)c1CCCOCc1ccccc1 | 3.53
2 | COc1ccc(S(=O)(=O)N2CCCC2C(=O)Nn2cnnc2)cc1 (stereo not drawn) | 5.29
3 | CCN1CCN(C(=O)CCCn2c(=O)c3cccn3c3cccnc32)CC1 | -3.91
4 | CCOc1ccccc1C(=O)n1nc(N)c2cc3ccc(C)cc3nc21 | 1.62
5 | CCC(C)(C)NC(=O)C1CCN(c2cnccn2)CC1 | 0.596
6 | COc1ccccc1CNC(=O)C1CCCN(c2ncnc3c2nc2n3CCCCC2)C1 (stereo not drawn) | 5.27
7 | N#C/C(=C\c1ccco1)c1nc2ccccc2[nH]1 | -4.01
8 | CSC=C(c1ccc(F)cc1)c1ccc(F)cc1 | 2.49
9 | C=CCSc1nc(=O)c2c(n1C)NC(=O)CC2c1ccc(F)cc1F (stereo not drawn) | 0.596
10 | Cc1ccc2c(c1)-c1c(cnn1CC(=O)N1CCOCC1)CO2 | 0.383
11 | COc1ccc(CCNc2nc(-c3ccc(O)cc3)cs2)cc1OC | 4.96
12 | O=C(O)[C@@H]1CSC(c2ccncc2)N1 (stereo partly drawn) | -0.999
13 | CC(C)(C)OC(=O)N1CCC(c2c(C(=O)NCCc3ccsc3)cnn2-c2ccccc2)CC1 | -2.9
14 | COc1ccc(-c2c(C#N)c(N)nc(SCC(=O)c3ccc(O)c(O)c3)c2C#N)cc1 | 2.3
15 | COC(=O)CCc1cn2ccccc2n1 | 0.427
16 | CC(C)C[C@H](NC(=O)OCc1ccccc1)C(=O)NC(C#N)CC(C)c1ccccc1 (stereo partly drawn) | 1.71
17 | CCn1cc(CCCC(=O)NCc2ccc(F)cc2)c2ccccc21 | 1.23
18 | COc1ccccc1C(=O)Nc1ccc2c(c1)C(=O)N(CC(C)C)C2=O | 2.75
19 | O=C(NCCc1ccccc1)c1cc2c(s1)CSC2 | 5.32
20 | CC(C)CC(NC(=O)c1cccc(Br)c1)C(=O)O (stereo not drawn) | -15.2
21 | Cc1noc(/C=C/c2ccco2)c1S(=O)(=O)N1CCC(C(=O)N(C(C)C)C2CCCCC2)CC1 | -8.9
22 | CCCCOCCCNC(=O)c1c(-c2ccccc2Cl)noc1C | 3.72
23 | O=P(OC(c1ccc(F)cc1)C(F)(F)F)(c1ccccc1)c1ccccc1 (stereo not drawn) | 0.878
24 | COc1ccc(CN(C(=O)Cc2coc3cc(C)ccc23)C2CCS(=O)(=O)C2)cc1 (stereo not drawn) | -2.4
25 | CC(C)(C)c1ccc(C(=O)CC2(O)C(=O)Nc3ccc(Br)cc32)cc1 (stereo not drawn) | -0.46

Row | Compound | % Inhibition @ 10 uM [%]
26 | CC(C)COC(=O)NC(C)C(=O)O (stereo not drawn) | 1.31
27 | O=C(Nc1ccc(S(=O)(=O)Nc2cnc3ccccc3n2)cc1)c1ccc(F)cc1 | -0.95
28 | Cc1ccc(CN(CC(=O)Nc2ccc3c(c2)OCCO3)S(=O)(=O)c2ccccc2)cc1 | -2.03
29 | CCOC(=O)N1CCc2c(sc3c2c(=O)n(Cc2ccccc2)c(=O)n3CC(=O)N(CC)CC)C1 | -6.52
30 | CC1(C)CC2=NC3=C(C(=O)CC(C)(C)C3)C(c3ccc(C#N)cc3)C2=C(O)C1 (stereo not drawn) | 3.99
31 | CC(C)c1ccc(-c2c(NCCN3CCCCCC3)c(=O)c2=O)cc1 | -0.539
32 | Cc1cc(/C=C2\SC(N)=NC2=O)c(C)n1-c1ccc(F)cc1 | 2.05
33 | O=C(NCc1cccs1)c1cccc(COc2cccc(Cl)c2)c1 | -2.97
34 | Fc1ccc(C(OCCN2CCCC2)c2ccc(F)cc2)cc1 | 4.08
35 | Cn1c2ccccc2c2cc(C3C(C#N)=C(N)N(c4cccnc4)C4=C3C(=O)CCC4)ccc21 (stereo not drawn) | 0.687
36 | O=S(=O)(c1ccc(-n2cnnn2)cc1)N1CCN(c2ccccn2)CC1 | -4.67
37 | CCOc1cccc2c1Oc1nc(-c3cc(OC)ccc3OC)nc(O)c1C2 | -1.06
38 | O=C(/C=C1\NC(=S)N(c2ccccc2)C1=O)c1ccccc1 | 7.13
39 | O=[N+]([O-])c1ccc(S(=O)(=O)Nc2cccc3c2CCCC3)cc1 | -2.36
40 | O=C(c1ccc(Cl)cc1)N1CCN(c2nnc(-c3ccccc3)c3ccccc23)CC1 | -2.75
41 | CCON1C(=O)CN(C(=O)OC)C1c1ccc(Cl)cc1Cl (stereo not drawn) | 0.76
42 | CC1(C)CC(=O)C2=C(C1)N(Cc1ccc(F)cc1)C(=O)C2(NC(=O)c1ccccc1)C(F)(F)F (stereo not drawn) | -4.18
43 | CCn1c2c(c(=O)[nH]c1=O)C(c1cccc(OC)c1)C1=C(O)c3ccccc3C1=N2 (stereo not drawn) | 2.46
44 | CCOC(=O)c1s/c(=N\C(=O)c2ccc(Oc3ccccc3)cc2)n(C)c1C | 3.06
45 | COc1ccc(/C=C2/C(=O)N(c3ccccc3)C(c3ccccc3)S2(=O)=O)cc1 (stereo not drawn) | 3.69
46 | CCCc1c(C)nc2ccc(OC)cc2c1Cl | -1.99
47 | CNCCCCOc1cccc2c(=O)c3ccccc3oc12 | -0.305
48 | Cc1ccc(C2=NN(S(C)(=O)=O)C(c3cc4cc5c(cc4nc3Cl)OCCO5)C2)cc1 (stereo not drawn) | 2.76
49 | O=C1NC(c2ccccc2Cl)Nc2sc3c(c21)CCCC3 (stereo not drawn) | -0.769
50 | C=CCc1cc(/C=C2/C(=N)N3C(SC)=NSC3=NC2=O)cc(OC)c1O | 2.59

Row | Compound | % Inhibition @ 10 uM [%]
51 | O=C(O)C1C2C=CC(C2)C1C(=O)N1CCN(C(c2ccccc2)c2ccccc2)CC1 (stereo not drawn) | -5.46
52 | CSCC[C@@H](C(=O)NC(C)c1cccs1)N1Cc2ccccc2C1=O (stereo partly drawn) | 1.26
53 | COc1ccc2cc(-c3nc4cc(C)ccc4[nH]3)c(=O)oc2c1 | 4.93
54 | O=C(c1ccc(CS(=O)(=O)c2cccc(C(F)(F)F)c2)o1)N1CCN(c2ccccn2)CC1 | -4.96
55 | CC(NC(=O)c1sc2nc(-c3ccncc3)ccc2c1N)C12CC3CC(CC(C3)C1)C2 (stereo not drawn) | 7.98
56 | NS(=O)(=O)c1ccc2c(c1)C1C=CCC1C(c1cccc3ccccc13)N2 (stereo not drawn) | -1.37
57 | COc1ccc(-c2noc(CN(C)S(=O)(=O)c3ccc(C)cc3)n2)cc1OC | 5.5
58 | Cc1ccc(Nc2ccccc2C(=O)O)cc1C | 12
59 | CC(C)CCNC(=O)CCC(=O)N1CC2CC(C1)c1cccc(=O)n1C2 (stereo not drawn) | 0.623
60 | Cc1cc(S(=O)(=O)Oc2cccc3cccnc23)c(Cl)cc1Cl | -0.597
61 | NC(=O)CSc1nc2ccccc2n1Cc1ccccc1 | -5.85
62 | COc1ccc(Cn2c(SCC(=O)Nc3cc(C)[nH]n3)nc3nccnc3c2=O)cc1 | 4.73
63 | CCOCCCNCc1ccc(OC(C)C)c(OC)c1 | 0.387
64 | Clc1ccc(N2CCN(Cc3c[nH]c4ccccc34)CC2)cc1 | 0.708
65 | COCCCN1C(=S)NC2CC1(C)Oc1ccccc12 (stereo not drawn) | -9.78
66 | Cc1cc(C)c2nc(N3CCC(C(=O)NC4CCCCCC4)CC3)sc2c1 | -1.58
67 | C=CCNC(=O)c1cc2c(=O)n3cccc(C)c3nc2n(CCN2CCOCC2)c1=N | 3.6
68 | O=C(NCCc1ccc(Cl)cc1)C1CCN(S(=O)(=O)c2cccc3cccnc23)CC1 | 1.9
69 | COc1ccc(C)cc1N(CC(=O)N[C@H](C)c1ccccc1)S(C)(=O)=O | 6.07
70 | COc1ccccc1-n1cnc2cc(C(=O)NCC3CCCO3)ccc21 (stereo not drawn) | 1.2
71 | O=C(c1ccc(Cl)c([N+](=O)[O-])c1)N1CCN(c2ccccc2)CC1 | -1.22
72 | CCO/C(O)=C1/C(C)=Nc2nc(SC)nn2C1c1ccc(-c2ncc(-c3ccccc3)o2)cc1 (stereo not drawn) | -3.13
73 | c1ccc2c(c1)CCC(NCc1ccncc1)C2 (stereo not drawn) | 5.03
74 | CN(CCNC(=O)c1noc2c1COc1ccccc1-2)C1CCCCC1 | 2.73
75 | COc1ccc(Cl)cc1C(=O)Nc1c2c(nn1C(C)(C)C)CS(=O)(=O)C2 | 0.566

Row | Compound | % Inhibition @ 10 uM [%]
76 | CCC(C)n1c(=O)c2sccc2n2c(CCCC(=O)N3CCC(C(N)=O)CC3)nnc12 (stereo not drawn) | -4.17
77 | CC(C)(C)OC(=O)N1CCC(c2c(C(=O)O)cnn2C(C)(C)C)CC1 | 2.39
78 | Cn1c(C(=O)N2CCCC(C(=O)NCc3ccccn3)C2)cc2sccc21 (stereo not drawn) | -7.84
79 | CN(C)C(=O)[C@@H]1OC(C)(C)O[C@H]1C(=O)N(C)C | -5.69
80 | COc1cc(OC)cc(C(=O)NCCCCc2ccccc2)c1 | -2.45
81 | Cc1nc2c(-c3ccccc3)c(C)nn2c(C)c1CCC(=O)NC(C)C | -4.1
82 | COc1ccc(CC(=O)NC2CCCCC2)cc1 | -6.91
83 | COc1ccc(NC(=S)Nc2ccccc2)cc1 | 1.33
84 | CCOc1ccccc1NC(=O)C1=C(C)NC(=O)NC1c1cccc(Cl)c1 (stereo not drawn) | -4.39
85 | O=C1CSc2nnc(C3COc4ccccc4O3)n2N1 (stereo not drawn) | 4.47
86 | Cc1nc2ccc(S(=O)(=O)N(C)CC(=O)N3CCCCCC3)cc2s1 | -0.522
87 | Cc1ccc(CNc2ncnc3c2cnn3C)cc1 | 5.99
88 | O=C(O)C(Cc1c[nH]c2ccccc12)Nc1ncnc2sc3c(c12)CCC3 (stereo not drawn) | 6.7
89 | Clc1ccc(-c2nnc3sc(-c4ccccc4)nn23)cc1 | 18.2
90 | COC(=O)c1c(C)n(CCc2ccccc2)c2c1cc(O)c1ccccc12 | 3.72
91 | O=C(c1cc2nc(-c3cccs3)cc(C(F)(F)F)n2n1)N1CCOCC1 | -1.5
92 | N#CCNC(=O)C(CCSc1ccccc1)NC(=O)c1ccccc1 (stereo not drawn) | -0.214
93 | CSc1nnc(-c2ccccc2)c(-c2ccccc2)n1 | -3.77
94 | N#C/C(=C\c1cccnc1)c1nc2ccccc2s1 | 1.08
95 | COc1cc(OC)cc(C(=O)N2CCN(Cc3cccc(Br)c3)CC2)c1 | -8.58
96 | COc1cc(OC)c(OC)cc1CN1CCN(Cc2cccc(Cl)c2)CC1 | -3.92
97 | Cc1ccc(S(=O)(=O)N2CCC(C(=O)NCCCO)CC2)cc1 | -3.74
98 | Brc1ccc(CN2CCSCC2)o1 | -1.07
99 | CC(Oc1ccc2c3c(c(=O)oc2c1)CCC3)C(=O)c1ccccc1 (stereo not drawn) | -1.26
